Results published in ChEMBL document CHEMBL4689842, “EUbOPEN Chemogenomics Library wave 1” (2021).

Tests used:
Assay type in all cases: toxicity, cell-based
[1] = tested on: Fibroblast; experiment: Multiplex assay against human fibroblast
Procedure, shortened: (§1)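 Values for tubulin, mitochondrial-mass and membrane-permeability phenotypes are per cents of cells with healthy nuclei. These cells were identified by CellPathfinder machine-learning gating of live cells that had been stained at seeding with Hoechst33342, BioTracker Green Microtubule Cytoskeleton Dye, MitoTracker Red and Annexin V Alexa Fluor 680 and imaged on a CQ1 microscope at 37°C and 5% CO2 after compound addition. The gating first set Hoechst high-intensity objects apart from normal cells, then split normal cells into healthy, pyknosed or fragmented nuclei, and pyknosed cells into mitotic or apoptotic.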

[2] = tested on: HEK-293T; experiment: Multiplex assay against HEK293T; conditions: human; procedure, shortened: as §1;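 on Population Tubulin-Different-Phenotype (%): share of the cells with healthy nuclei that show this phenotype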
[3] = tested on: U2OS; experiment: Multiplex assay against U2OS; conditions: human; procedure, shortened: as §1
[4] = 12 h, 10 µM, compound concentration 10 uM, replicate 1
[5] = 12 h, 10 µM, compound concentration 10 uM, replicate 2
[6] = 24 h, 10 µM, compound concentration 10 uM, replicate 1
[7] = 24 h, 10 µM, compound concentration 10 uM, replicate 2
[8] = 12 h, 1 µM, compound concentration 1 uM, replicate 1
[9] = 12 h, 1 µM, compound concentration 1 uM, replicate 2
[10] = 24 h, 1 µM, compound concentration 1 uM, replicate 1
[11] = 24 h, 1 µM, compound concentration 1 uM, replicate 2

C[C@@]1(C(=O)Nc2ccc(F)nc2)CCCN1c1nc(Nc2cc(C3CC3)n[nH]2)c2cccn2n1 [BMS-754807]
Population Membrane Permeable-Phenotype (%) [1, 4]: 37% and 12%
Population Mitochondria Different-Phenotype (%) [1, 4]: 25% and 3%
Population Tubulin-Different-Phenotype (%) [1, 4]: 85% and 6%
Population Fragmented Nuclei (%) [1, 5]: 54% and 15%
Population Mitochondria Different-Phenotype (%) [1, 5]: 17% and 70%
Population Mitotic Cells (%) [1, 5]: 20% and 66%
Population Pyknosed Nuclei (%) [1, 5]: 8% and 26%
Population Tubulin-Different-Phenotype (%) [1, 5]: 21% and 88%
Population Mitochondria Different-Phenotype (%) [1, 6]: 23% and 1%
Population Tubulin-Different-Phenotype (%) [1, 6]: 82% and 4%
Population Fragmented Nuclei (%) [1, 7]: 63% and 17%
Population Hoechst High Intensity Objects (%) [1, 7]: 31% and 9%
Population Membrane Permeable-Phenotype (%) [1, 7]: 6% and 22%
Population Pyknosed Nuclei (%) [1, 7]: 8% and 34%
Population Tubulin-Different-Phenotype (%) [1, 7]: 18% and 77%
Population Apoptotic (%) [2, 4]: 73% and 16%
Population Healthy Nuclei (%) [2, 4]: 15% and 59%
Population Mitochondria Different-Phenotype (%) [2, 4]: 96% and 15%
Population Mitotic Cells (%) [2, 4]: 26% and 84%
Population Tubulin-Different-Phenotype (%) [2, 4]: 87% and 23%
Population Apoptotic (%) [2, 5]: 48% and 15%
Population Healthy Nuclei (%) [2, 5]: 11% and 88%
Population Mitochondria Different-Phenotype (%) [2, 5]: 100% and 22%
Population Pyknosed Nuclei (%) [2, 5]: 80% and 7%
Total Cell Count [2, 5]: 182 and 940
Population Healthy Nuclei (%) [2, 6]: 14% and 74%
Population Mitochondria Different-Phenotype (%) [2, 6]: 100% and 11%
Population Pyknosed Nuclei (%) [2, 6]: 67% and 11%
Population Apoptotic (%) [2, 7]: 69% and 18%
Population Healthy Nuclei (%) [2, 7]: 24% and 86%
Population Mitochondria Different-Phenotype (%) [2, 7]: 85% and 9%
Population Pyknosed Nuclei (%) [2, 7]: 68% and 4%
Total Cell Count [2, 7]: 183 and 988
Population Tubulin-Different-Phenotype (%) [3, 4]: 89% and 14%
Population Pyknosed Nuclei (%) [3, 5]: 26% and 7%
Population Tubulin-Different-Phenotype (%) [3, 5]: 88% and 22%
Population Tubulin-Different-Phenotype (%) [3, 6]: 17% and 83%
Population Apoptotic (%) [3, 7]: 37% and 10%

Cn1cc(C2=C(c3cn(C4CCN(Cc5ccccn5)CC4)c4ccccc34)C(=O)NC2=O)c2ccccc21 [ENZASTAURIN]
Population Hoechst High Intensity Objects (%) [1, 8]: 15% and 66%
Population Mitochondria Different-Phenotype (%) [1, 8]: 6% and 28%
Population Tubulin-Different-Phenotype (%) [1, 8]: 18% and 70%
Population Tubulin-Different-Phenotype (%) [1, 9]: 16% and 73%
Population Hoechst High Intensity Objects (%) [1, 10]: 71% and 16%
Population Mitochondria Different-Phenotype (%) [1, 10]: 68% and 5%
Population Tubulin-Different-Phenotype (%) [1, 10]: 72% and 11%
Population Mitochondria Different-Phenotype (%) [1, 11]: 15% and 85%
Population Mitotic Cells (%) [1, 11]: 66% and 9%
Population Pyknosed Nuclei (%) [1, 11]: 6% and 30%
Population Tubulin-Different-Phenotype (%) [1, 11]: 15% and 85%
Population Mitochondria Different-Phenotype (%) [2, 8]: 10% and 52%
Population Tubulin-Different-Phenotype (%) [2, 8]: 23% and 79%
Population Mitochondria Different-Phenotype (%) [2, 10]: 78% and 12%
Population Apoptotic (%) [2, 11]: 31% and 6%
Population Mitochondria Different-Phenotype (%) [2, 11]: 81% and 8%
Population Pyknosed Nuclei (%) [2, 11]: 10% and 3%
Population Mitochondria Different-Phenotype (%) [3, 8]: 95% and 16%
Population Pyknosed Nuclei (%) [3, 8]: 49% and 12%
Population Mitochondria Different-Phenotype (%) [3, 9]: 98% and 18%
Population Healthy Nuclei (%) [3, 10]: 16% and 80%
Population Hoechst High Intensity Objects (%) [3, 10]: 16% and 3%
Population Membrane Permeable-Phenotype (%) [3, 10]: 95% and 20%
Population Mitochondria Different-Phenotype (%) [3, 10]: 100% and 10%
Population Mitotic Cells (%) [3, 10]: 10% and 46%
Population Pyknosed Nuclei (%) [3, 10]: 68% and 13%
Population Tubulin-Different-Phenotype (%) [3, 10]: 100% and 25%
Population Healthy Nuclei (%) [3, 11]: 19% and 79%
Population Mitochondria Different-Phenotype (%) [3, 11]: 95% and 18%
Population Pyknosed Nuclei (%) [3, 11]: 65% and 12%

O=C(NCCN1CCOCC1)c1ccc2c(c1)C(=O)c1ccc(Nc3ccc(F)c(NC(=O)c4ccccc4)c3)cc1CC2 [FS-694]
Population Hoechst High Intensity Objects (%) [1, 4]: 18% and 70%
Population Membrane Permeable-Phenotype (%) [1, 4]: 5% and 17%
Population Mitochondria Different-Phenotype (%) [1, 4]: 6% and 1%
Population Normal (%) [1, 5]: 55% and 17%
Population Tubulin-Different-Phenotype (%) [1, 5]: 36% and 10%
Total Cell Count [1, 5]: 126 and 915
Population Hoechst High Intensity Objects (%) [1, 6]: 65% and 19%
Total Cell Count [1, 7]: 120 and 859
Population Hoechst High Intensity Objects (%) [2, 4]: 58% and 14%
Population Hoechst High Intensity Objects (%) [2, 5]: 23% and 3%
Population Fragmented Nuclei (%) [2, 6]: 41% and 10%
Population Healthy Nuclei (%) [2, 6]: 24% and 73%
Population Hoechst High Intensity Objects (%) [2, 6]: 56% and 10%
Population Apoptotic (%) [2, 7]: 9% and 39%
Population Hoechst High Intensity Objects (%) [2, 7]: 4% and 30%
Population Membrane Permeable-Phenotype (%) [2, 7]: 19% and 6%
Population Mitochondria Different-Phenotype (%) [2, 7]: 11% and 70%
Population Pyknosed Nuclei (%) [2, 7]: 4% and 36%
Population Fragmented Nuclei (%) [3, 4]: 7% and 31%
Population Hoechst High Intensity Objects (%) [3, 4]: 4% and 46%
Population Apoptotic (%) [3, 5]: 39% and 10%
Population Hoechst High Intensity Objects (%) [3, 5]: 52% and 10%
Population Mitochondria Different-Phenotype (%) [3, 5]: 61% and 14%
Population Tubulin-Different-Phenotype (%) [3, 5]: 83% and 23%
Population Fragmented Nuclei (%) [3, 6]: 28% and 7%
Population Hoechst High Intensity Objects (%) [3, 6]: 44% and 4%
Population Mitochondria Different-Phenotype (%) [3, 6]: 73% and 17%
Population Tubulin-Different-Phenotype (%) [3, 6]: 89% and 29%
Population Hoechst High Intensity Objects (%) [3, 7]: 52% and 8%
Population Mitochondria Different-Phenotype (%) [3, 7]: 77% and 24%
Population Tubulin-Different-Phenotype (%) [3, 7]: 87% and 12%

The source holds more than one record for some entries. The list is limited to them. The source may hold further records. Values that stand side by side are repeated measurements across runs, samples, wells, individuals or studies.
